{"source": "the supplement of paper PMC8728848", "binders": {"B1": {"name": "Epa22 (Candida glabrata) (protein)", "chain": "MGSSHHHHHHSSGLVPRGSHMKRALSSQNPFGYPIGCSPQSTNVIPGLTMELYSYPIVSGTPPNCYDASYVDPEYPRTGYLKRKMIGKSTGVTGSLNYKFSVEKACMVKYGNLPAGYNYNEPLTVSNFTMLLYGYFKPQTSGIHTFFVNADDLLYINFGAGNAFDCCKREDSKFKLGEYVAYDIWHVDSSKNKVSLNLEKDVYYPIRMFFNNIGKDSSLDLSFSVNGAVEHITDFSGYLYSVPDQPDACPAPIGYDTTCK"}}, "test_in_all_cases": "glycan array binding signal (z-score within array); higher = stronger binding", "conditions_in_all_cases": "glycan notation: IUPAC condensed, linker removed", "key": {"Gal3S6S(b1-4)GlcNAc": {"target": "Gal3S6S(b1-4)GlcNAc", "outline": "(§1)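 The binding signal is a Z-score computed within each array. Data were drawn from 3228 arrays in the Consortium for Functional Glycomics database, restricted to those with a known protein sequence. Scores were averaged over arrays of the same protein sequence at different concentrations or buffers, and over linkers, and negative values can be taken as non-binding.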"}, "Gal3S6S(b1-4)GlcNAc6S": {"target": "Gal3S6S(b1-4)GlcNAc6S", "outline": "as §1"}, "Gal4S(b1-4)GlcNAc": {"target": "Gal4S(b1-4)GlcNAc", "outline": "as §1"}, "Gal4S6S(b1-4)GlcNAc": {"target": "Gal4S6S(b1-4)GlcNAc", "outline": "as §1"}, "Gal6P(b1-4)GlcNAc": {"target": "Gal6P(b1-4)GlcNAc", "outline": "as §1"}, "Gal6S(b1-3)GlcNAc": {"target": "Gal6S(b1-3)GlcNAc", "outline": "as §1"}, "Gal6S(b1-3)GlcNAc6S": {"target": "Gal6S(b1-3)GlcNAc6S", "outline": "as §1"}, "Gal6S(b1-4)Glc": {"target": "Gal6S(b1-4)Glc", "outline": "as §1"}, "Gal6S(b1-4)Glc6S": {"target": "Gal6S(b1-4)Glc6S", "outline": "as §1"}, "Gal6S(b1-4)GlcNAc": {"target": "Gal6S(b1-4)GlcNAc", "outline": "as §1"}, "Gal6S(b1-4)GlcNAc6S": {"target": "Gal6S(b1-4)GlcNAc6S", "outline": "as §1"}, "GalNAc(a1-3)Gal": {"target": "GalNAc(a1-3)Gal", "outline": "as §1"}, "GalNAc(a1-3)GalNAc": {"target": "GalNAc(a1-3)GalNAc", "outline": "as §1"}, "[1]": {"target": "GalNAc(a1-3)GalNAc(b1-3)Gal(a1-4)Gal(b1-4)Glc", "outline": "as §1"}, "[2]": {"target": "GalNAc(a1-3)GalNAc(b1-3)Gal(a1-4)Gal(b1-4)GlcNAc", "outline": "as §1"}, "GalNAc(b1-3)Gal": {"target": "GalNAc(b1-3)Gal", "outline": "as §1"}, "[3]": {"target": "GalNAc(b1-3)Gal(a1-4)Gal(b1-4)GlcNAc", "outline": "as §1"}, "[4]": {"target": "GalNAc(b1-3)Gal(a1-4)Gal(b1-4)GlcNAc(b1-3)Gal(b1-4)Glc", "outline": "as §1"}, "[5]": {"target": "GalNAc(b1-3)Gal(a1-6)Gal(b1-4)Glc", "outline": "as §1"}, "GalNAc(b1-3)GalNAc": {"target": "GalNAc(b1-3)GalNAc", "outline": "as §1"}, "GalNAc(b1-3)GlcNAc": {"target": "GalNAc(b1-3)GlcNAc", "outline": "as §1"}, "GalNAc(b1-4)Gal(b1-4)Glc": {"target": "GalNAc(b1-4)Gal(b1-4)Glc", "outline": "as §1"}, "GalNAc(b1-4)GlcNAc": {"target": "GalNAc(b1-4)GlcNAc", "outline": "as §1"}, "[6]": {"target": "GalNAc(b1-4)GlcNAc(b1-2)Man", "outline": "as §1"}, "[7]": {"target": "GalNAc(b1-4)GlcNAc(b1-2)Man(a1-3)[GalNAc(b1-4)GlcNAc(b1-2)Man(a1-6)]Man(b1-4)GlcNAc(b1-4)GlcNAc", "outline": "as §1"}, "[8]": {"target": "GalNAc(b1-4)GlcNAc(b1-3)GalNAc(b1-4)GlcNAc", "outline": "as §1"}, "GalNAc(b1-4)GlcNAc6S": {"target": "GalNAc(b1-4)GlcNAc6S", "outline": "as §1"}, "GalNAc(b1-6)GalNAc": {"target": "GalNAc(b1-6)GalNAc", "outline": "as §1"}, "GalNAc3S(b1-4)GlcNAc": {"target": "GalNAc3S(b1-4)GlcNAc", "outline": "as §1"}, "GalNAc3S(b1-4)GlcNAc3S": {"target": "GalNAc3S(b1-4)GlcNAc3S", "outline": "as §1"}, "[9]": {"target": "GalNAc3S(b1-4)[Fuc(a1-3)]GlcNAc", "outline": "as §1"}, "GalNAc4S6S(b1-4)GlcNAc": {"target": "GalNAc4S6S(b1-4)GlcNAc", "outline": "as §1"}, "GalNAc6S(b1-4)GlcNAc": {"target": "GalNAc6S(b1-4)GlcNAc", "outline": "as §1"}, "Glc(a1-4)Glc": {"target": "Glc(a1-4)Glc", "outline": "as §1"}, "[10]": {"target": "Glc(a1-4)Glc(a1-4)Glc(a1-4)Glc", "outline": "as §1"}, "Glc(a1-6)Glc(a1-6)Glc": {"target": "Glc(a1-6)Glc(a1-6)Glc", "outline": "as §1"}, "[11]": {"target": "Glc(a1-6)Glc(a1-6)Glc(a1-6)Glc", "outline": "as §1"}, "Glc(b1-4)Glc": {"target": "Glc(b1-4)Glc", "outline": "as §1"}}, "note": "The other results are listed elsewhere or left out.", "data": [{"binder": "B1", "values": [{"measurement": "glycan array binding signal (z-score)", "setting": "Gal3S6S(b1-4)GlcNAc", "value": -0.18}, {"measurement": "glycan array binding signal (z-score)", "setting": "Gal3S6S(b1-4)GlcNAc6S", "value": 2.14}, {"measurement": "glycan array binding signal (z-score)", "setting": "Gal4S(b1-4)GlcNAc", "value": -0.182}, {"measurement": "glycan array binding signal (z-score)", "setting": "Gal4S6S(b1-4)GlcNAc", "value": -0.379}, {"measurement": "glycan array binding signal (z-score)", "setting": "Gal6P(b1-4)GlcNAc", "value": -0.245}, {"measurement": "glycan array binding signal (z-score)", "setting": "Gal6S(b1-3)GlcNAc", "value": 2.98}, {"measurement": "glycan array binding signal (z-score)", "setting": "Gal6S(b1-3)GlcNAc6S", "value": 5.95}, {"measurement": "glycan array binding signal (z-score)", "setting": "Gal6S(b1-4)Glc", "value": 3.57}, {"measurement": "glycan array binding signal (z-score)", "setting": "Gal6S(b1-4)Glc6S", "value": 4.93}, {"measurement": "glycan array binding signal (z-score)", "setting": "Gal6S(b1-4)GlcNAc", "value": 2.35}, {"measurement": "glycan array binding signal (z-score)", "setting": "Gal6S(b1-4)GlcNAc6S", "value": 4.56}, {"measurement": "glycan array binding signal (z-score)", "setting": "GalNAc(a1-3)Gal", "value": -0.378}, {"measurement": "glycan array binding signal (z-score)", "setting": "GalNAc(a1-3)GalNAc", "value": -0.38}, {"measurement": "glycan array binding signal (z-score)", "setting": "[1]", "value": -0.409}, {"measurement": "glycan array binding signal (z-score)", "setting": "[2]", "value": -0.33}, {"measurement": "glycan array binding signal (z-score)", "setting": "GalNAc(b1-3)Gal", "value": -0.4}, {"measurement": "glycan array binding signal (z-score)", "setting": "[3]", "value": 0.085}, {"measurement": "glycan array binding signal (z-score)", "setting": "[4]", "value": -0.336}, {"measurement": "glycan array binding signal (z-score)", "setting": "[5]", "value": -0.363}, {"measurement": "glycan array binding signal (z-score)", "setting": "GalNAc(b1-3)GalNAc", "value": -0.424}, {"measurement": "glycan array binding signal (z-score)", "setting": "GalNAc(b1-3)GlcNAc", "value": -0.322}, {"measurement": "glycan array binding signal (z-score)", "setting": "GalNAc(b1-4)Gal(b1-4)Glc", "value": -0.362}, {"measurement": "glycan array binding signal (z-score)", "setting": "GalNAc(b1-4)GlcNAc", "value": -0.38}, {"measurement": "glycan array binding signal (z-score)", "setting": "[6]", "value": -0.393}, {"measurement": "glycan array binding signal (z-score)", "setting": "[7]", "value": -0.36}, {"measurement": "glycan array binding signal (z-score)", "setting": "[8]", "value": -0.401}, {"measurement": "glycan array binding signal (z-score)", "setting": "GalNAc(b1-4)GlcNAc6S", "value": -0.344}, {"measurement": "glycan array binding signal (z-score)", "setting": "GalNAc(b1-6)GalNAc", "value": -0.388}, {"measurement": "glycan array binding signal (z-score)", "setting": "GalNAc3S(b1-4)GlcNAc", "value": -0.316}, {"measurement": "glycan array binding signal (z-score)", "setting": "GalNAc3S(b1-4)GlcNAc3S", "value": -0.316}, {"measurement": "glycan array binding signal (z-score)", "setting": "[9]", "value": -0.379}, {"measurement": "glycan array binding signal (z-score)", "setting": "GalNAc4S6S(b1-4)GlcNAc", "value": -0.244}, {"measurement": "glycan array binding signal (z-score)", "setting": "GalNAc6S(b1-4)GlcNAc", "value": -0.21}, {"measurement": "glycan array binding signal (z-score)", "setting": "Glc(a1-4)Glc", "value": -0.389}, {"measurement": "glycan array binding signal (z-score)", "setting": "[10]", "value": -0.335}, {"measurement": "glycan array binding signal (z-score)", "setting": "Glc(a1-6)Glc(a1-6)Glc", "value": -0.425}, {"measurement": "glycan array binding signal (z-score)", "setting": "[11]", "value": -0.376}, {"measurement": "glycan array binding signal (z-score)", "setting": "Glc(b1-4)Glc", "value": -0.4}]}]}
